From PMC11186355
Results are given in words; binding and its absence hold for the method and conditions named. For some of these results: In cells and extracts the contact can be indirect. Some entries that bind do so weakly or less than the wild type. For some of these results: Sequences can lack the tags named with a protein. Blank lines part the entries; values can stand above or below the substance they belong to.

The chains behind the UniProt entries cited, without tags or fusion partners.
UniProt Q9Y2I6: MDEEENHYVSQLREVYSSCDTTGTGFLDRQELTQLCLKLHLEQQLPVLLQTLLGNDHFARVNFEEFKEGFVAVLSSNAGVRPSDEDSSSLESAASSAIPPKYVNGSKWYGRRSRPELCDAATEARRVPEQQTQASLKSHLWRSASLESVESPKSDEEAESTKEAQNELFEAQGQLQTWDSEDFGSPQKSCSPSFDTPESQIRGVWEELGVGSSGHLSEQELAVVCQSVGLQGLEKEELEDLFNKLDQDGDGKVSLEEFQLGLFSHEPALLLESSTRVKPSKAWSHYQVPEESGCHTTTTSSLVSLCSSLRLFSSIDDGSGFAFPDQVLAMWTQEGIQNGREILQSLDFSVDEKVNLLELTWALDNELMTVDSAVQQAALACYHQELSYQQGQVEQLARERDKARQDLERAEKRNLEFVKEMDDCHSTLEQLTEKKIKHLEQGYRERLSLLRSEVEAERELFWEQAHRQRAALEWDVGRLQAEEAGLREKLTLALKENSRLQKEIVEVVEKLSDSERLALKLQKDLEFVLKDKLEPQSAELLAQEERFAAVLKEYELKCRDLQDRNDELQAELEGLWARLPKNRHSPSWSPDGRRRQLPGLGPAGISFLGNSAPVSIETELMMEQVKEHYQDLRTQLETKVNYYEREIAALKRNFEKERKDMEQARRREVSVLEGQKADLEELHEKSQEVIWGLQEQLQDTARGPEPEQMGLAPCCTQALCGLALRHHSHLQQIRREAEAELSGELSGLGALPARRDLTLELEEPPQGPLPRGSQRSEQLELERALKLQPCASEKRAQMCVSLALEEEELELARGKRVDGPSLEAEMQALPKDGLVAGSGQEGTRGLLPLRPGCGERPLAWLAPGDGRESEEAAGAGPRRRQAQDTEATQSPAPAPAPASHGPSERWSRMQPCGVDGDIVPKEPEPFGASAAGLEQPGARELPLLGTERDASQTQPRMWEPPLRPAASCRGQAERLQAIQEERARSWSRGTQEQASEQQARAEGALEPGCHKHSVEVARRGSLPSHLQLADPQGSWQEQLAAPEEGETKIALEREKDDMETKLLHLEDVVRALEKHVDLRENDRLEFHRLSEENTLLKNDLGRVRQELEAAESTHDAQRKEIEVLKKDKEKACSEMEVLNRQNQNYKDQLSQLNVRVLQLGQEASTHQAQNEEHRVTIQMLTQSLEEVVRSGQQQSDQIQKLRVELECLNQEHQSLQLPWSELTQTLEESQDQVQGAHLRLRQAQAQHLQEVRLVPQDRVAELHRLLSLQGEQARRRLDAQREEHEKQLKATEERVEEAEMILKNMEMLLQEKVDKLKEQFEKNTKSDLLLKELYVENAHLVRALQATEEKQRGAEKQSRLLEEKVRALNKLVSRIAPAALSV
UniProt Q9H0U4: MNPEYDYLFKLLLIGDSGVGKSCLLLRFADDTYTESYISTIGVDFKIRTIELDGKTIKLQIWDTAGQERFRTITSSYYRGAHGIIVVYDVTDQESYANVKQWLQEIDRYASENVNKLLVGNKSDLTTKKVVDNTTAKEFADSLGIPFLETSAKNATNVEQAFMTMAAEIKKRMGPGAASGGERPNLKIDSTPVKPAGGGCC
UniProt Q15437: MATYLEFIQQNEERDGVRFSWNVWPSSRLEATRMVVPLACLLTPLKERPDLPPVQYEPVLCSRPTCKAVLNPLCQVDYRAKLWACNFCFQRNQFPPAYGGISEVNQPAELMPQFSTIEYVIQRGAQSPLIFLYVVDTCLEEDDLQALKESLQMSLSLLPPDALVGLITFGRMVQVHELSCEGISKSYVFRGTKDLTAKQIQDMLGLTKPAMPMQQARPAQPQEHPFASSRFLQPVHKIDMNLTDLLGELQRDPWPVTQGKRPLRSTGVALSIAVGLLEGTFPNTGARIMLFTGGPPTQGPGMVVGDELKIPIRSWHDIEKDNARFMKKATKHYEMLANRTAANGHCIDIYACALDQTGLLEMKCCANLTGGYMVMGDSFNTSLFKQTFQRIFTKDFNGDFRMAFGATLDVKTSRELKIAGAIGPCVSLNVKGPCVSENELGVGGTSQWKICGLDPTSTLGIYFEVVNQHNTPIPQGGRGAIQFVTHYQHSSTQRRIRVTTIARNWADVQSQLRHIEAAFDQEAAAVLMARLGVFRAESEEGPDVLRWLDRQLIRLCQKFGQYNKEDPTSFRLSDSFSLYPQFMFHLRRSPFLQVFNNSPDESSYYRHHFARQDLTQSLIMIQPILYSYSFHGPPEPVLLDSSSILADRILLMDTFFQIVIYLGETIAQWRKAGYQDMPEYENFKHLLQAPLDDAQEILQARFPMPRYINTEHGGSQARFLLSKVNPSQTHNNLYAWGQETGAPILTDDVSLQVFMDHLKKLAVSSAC
UniProt P35222: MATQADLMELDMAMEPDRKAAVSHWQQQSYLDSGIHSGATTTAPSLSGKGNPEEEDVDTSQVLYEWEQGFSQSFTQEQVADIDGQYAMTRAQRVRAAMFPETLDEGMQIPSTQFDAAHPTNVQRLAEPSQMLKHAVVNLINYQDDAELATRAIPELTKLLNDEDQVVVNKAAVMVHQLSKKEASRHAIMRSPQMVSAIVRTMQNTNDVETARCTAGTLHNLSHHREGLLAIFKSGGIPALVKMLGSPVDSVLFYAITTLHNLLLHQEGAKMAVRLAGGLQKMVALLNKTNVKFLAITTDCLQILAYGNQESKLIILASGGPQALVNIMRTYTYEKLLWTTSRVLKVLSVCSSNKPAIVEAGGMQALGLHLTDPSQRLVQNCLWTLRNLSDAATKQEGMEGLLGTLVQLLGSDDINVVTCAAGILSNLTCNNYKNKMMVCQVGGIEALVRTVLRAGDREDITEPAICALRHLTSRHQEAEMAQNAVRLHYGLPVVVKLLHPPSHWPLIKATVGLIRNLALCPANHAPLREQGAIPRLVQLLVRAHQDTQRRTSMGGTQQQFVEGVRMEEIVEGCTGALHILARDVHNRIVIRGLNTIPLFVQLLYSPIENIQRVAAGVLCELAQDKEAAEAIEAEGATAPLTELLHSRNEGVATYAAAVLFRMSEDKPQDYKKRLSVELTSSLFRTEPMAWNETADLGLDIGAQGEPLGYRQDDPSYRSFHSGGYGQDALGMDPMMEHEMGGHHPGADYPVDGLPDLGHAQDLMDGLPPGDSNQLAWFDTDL
UniProt Q86WV6: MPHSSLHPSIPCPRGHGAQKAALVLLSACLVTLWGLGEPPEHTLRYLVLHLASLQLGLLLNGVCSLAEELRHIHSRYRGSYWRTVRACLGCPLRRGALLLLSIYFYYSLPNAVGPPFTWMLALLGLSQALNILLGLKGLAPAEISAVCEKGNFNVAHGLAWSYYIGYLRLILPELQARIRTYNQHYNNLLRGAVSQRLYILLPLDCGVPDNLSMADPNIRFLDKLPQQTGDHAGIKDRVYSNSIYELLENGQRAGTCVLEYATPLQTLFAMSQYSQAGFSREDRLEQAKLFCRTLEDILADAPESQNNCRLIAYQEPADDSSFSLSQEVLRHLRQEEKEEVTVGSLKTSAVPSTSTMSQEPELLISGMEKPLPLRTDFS

Experiments:
[1] = target: Ninein-like protein (Nlp) (human (endogenous in HeLa)) (UniProt Q9Y2I6); experiment: co-IP; endogenous proteins in HeLa cell lysate, 1% NP-40 buffer, Protein A/G magnetic beads with ~2 μg antibody or IgG, 4°C overnight, immunoblotting
[2] = target: Nlp-6*His (UniProt Q9Y2I6); experiment: SPR; Biacore 8K, 6000 RU of Nlp-6*His immobilised on a CM5 chip by amine coupling, PBS running buffer, 25 °C; gradient concentrations of SEC31A or Rab1B injected; both purified
[3] = target: Rab1B-GST (UniProt Q9H0U4); experiment: pull-down; GST fusion proteins on glutathione magnetic agarose beads mixed with 1 mg Nlp-6*His for 6 hours at 4°C, washed seven times with 1% NP-40 buffer, immunoblotting; both purified
[4] = target: T1, SEC13-GST (UniProt P55735); experiment: as above
T1 sequence: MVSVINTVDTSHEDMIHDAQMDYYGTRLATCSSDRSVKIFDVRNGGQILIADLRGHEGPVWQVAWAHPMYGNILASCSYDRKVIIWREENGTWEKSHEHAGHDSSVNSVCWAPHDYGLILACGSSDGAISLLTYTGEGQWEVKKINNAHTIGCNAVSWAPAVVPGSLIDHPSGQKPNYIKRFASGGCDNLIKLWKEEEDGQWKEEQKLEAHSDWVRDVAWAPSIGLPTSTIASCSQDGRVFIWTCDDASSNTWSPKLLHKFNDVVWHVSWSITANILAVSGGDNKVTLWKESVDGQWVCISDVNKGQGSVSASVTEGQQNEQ

[5] = target: T2, SEC24A-GST (UniProt O95486); experiment: as above
T2 sequence: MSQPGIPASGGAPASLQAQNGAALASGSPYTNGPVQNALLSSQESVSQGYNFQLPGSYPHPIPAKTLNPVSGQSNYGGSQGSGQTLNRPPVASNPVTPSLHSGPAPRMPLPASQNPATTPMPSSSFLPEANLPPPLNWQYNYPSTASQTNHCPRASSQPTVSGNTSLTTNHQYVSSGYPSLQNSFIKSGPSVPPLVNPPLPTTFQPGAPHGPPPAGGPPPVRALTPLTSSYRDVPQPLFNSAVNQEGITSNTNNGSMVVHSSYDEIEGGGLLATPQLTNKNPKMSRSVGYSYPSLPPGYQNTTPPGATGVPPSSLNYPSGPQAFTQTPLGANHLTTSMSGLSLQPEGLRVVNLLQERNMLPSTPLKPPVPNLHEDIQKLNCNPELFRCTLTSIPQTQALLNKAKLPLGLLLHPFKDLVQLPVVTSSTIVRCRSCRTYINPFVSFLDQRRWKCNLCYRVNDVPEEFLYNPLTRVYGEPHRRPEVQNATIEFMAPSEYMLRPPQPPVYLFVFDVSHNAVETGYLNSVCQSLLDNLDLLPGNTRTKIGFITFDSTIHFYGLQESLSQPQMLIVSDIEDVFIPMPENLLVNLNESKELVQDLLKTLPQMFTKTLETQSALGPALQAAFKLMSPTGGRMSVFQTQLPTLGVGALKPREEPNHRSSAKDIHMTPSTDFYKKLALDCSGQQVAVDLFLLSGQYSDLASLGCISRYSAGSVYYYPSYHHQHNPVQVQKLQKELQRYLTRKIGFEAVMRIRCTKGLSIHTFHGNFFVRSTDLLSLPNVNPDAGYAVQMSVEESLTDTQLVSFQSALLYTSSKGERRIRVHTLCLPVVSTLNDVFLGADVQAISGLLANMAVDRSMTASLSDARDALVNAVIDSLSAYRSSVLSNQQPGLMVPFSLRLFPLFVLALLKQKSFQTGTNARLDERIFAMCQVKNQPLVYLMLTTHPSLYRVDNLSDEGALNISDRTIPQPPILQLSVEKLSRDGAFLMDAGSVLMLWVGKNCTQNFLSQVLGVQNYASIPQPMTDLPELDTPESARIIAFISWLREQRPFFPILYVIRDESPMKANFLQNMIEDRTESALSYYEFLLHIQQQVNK

[6] = target: T3, SEC31A-GST (UniProt O94979); experiment: as above
T3 sequence: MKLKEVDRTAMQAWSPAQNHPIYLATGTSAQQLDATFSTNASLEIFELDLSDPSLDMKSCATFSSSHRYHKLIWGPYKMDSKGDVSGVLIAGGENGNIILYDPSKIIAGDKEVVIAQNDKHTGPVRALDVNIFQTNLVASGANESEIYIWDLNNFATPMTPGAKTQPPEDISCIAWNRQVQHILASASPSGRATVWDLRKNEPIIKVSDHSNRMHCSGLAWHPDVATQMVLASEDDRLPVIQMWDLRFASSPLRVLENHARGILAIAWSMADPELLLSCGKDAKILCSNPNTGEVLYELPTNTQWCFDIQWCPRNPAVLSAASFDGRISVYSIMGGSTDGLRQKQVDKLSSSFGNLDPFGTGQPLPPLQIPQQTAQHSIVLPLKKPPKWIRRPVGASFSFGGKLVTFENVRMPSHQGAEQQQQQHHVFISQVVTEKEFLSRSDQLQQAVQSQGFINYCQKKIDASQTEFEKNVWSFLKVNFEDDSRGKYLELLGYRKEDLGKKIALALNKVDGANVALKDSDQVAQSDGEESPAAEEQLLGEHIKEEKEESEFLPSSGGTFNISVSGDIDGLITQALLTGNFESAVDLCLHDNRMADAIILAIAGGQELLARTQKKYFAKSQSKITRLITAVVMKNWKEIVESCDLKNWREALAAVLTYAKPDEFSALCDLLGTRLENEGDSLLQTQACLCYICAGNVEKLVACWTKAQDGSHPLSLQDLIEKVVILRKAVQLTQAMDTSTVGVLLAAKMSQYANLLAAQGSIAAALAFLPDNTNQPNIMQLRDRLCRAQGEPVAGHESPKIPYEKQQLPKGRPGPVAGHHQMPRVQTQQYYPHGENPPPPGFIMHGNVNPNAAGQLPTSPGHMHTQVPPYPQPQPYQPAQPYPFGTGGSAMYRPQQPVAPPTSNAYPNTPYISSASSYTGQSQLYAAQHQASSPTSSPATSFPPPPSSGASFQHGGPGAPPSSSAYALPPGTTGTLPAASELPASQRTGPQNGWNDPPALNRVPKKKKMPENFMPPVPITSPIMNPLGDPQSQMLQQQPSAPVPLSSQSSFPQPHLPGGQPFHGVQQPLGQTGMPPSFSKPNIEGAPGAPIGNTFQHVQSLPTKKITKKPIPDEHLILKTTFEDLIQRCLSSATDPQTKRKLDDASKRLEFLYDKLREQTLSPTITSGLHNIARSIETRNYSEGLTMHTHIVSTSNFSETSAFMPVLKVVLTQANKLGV

[7] = target: SEC23B-GST (UniProt Q15437); experiment: as above
[8] = target: T4, SEC31A (human (endogenous in HeLa)) (UniProt O94979); experiment: co-IP; endogenous proteins in HeLa cell lysate, 1% NP-40 buffer, Protein A/G magnetic beads with ~2 μg antibody or IgG, 4°C overnight, immunoblotting
T4 sequence: T3 sequence

Substance: Rab1B purified protein (GST removed by Thrombin) (from UniProt Q9H0U4 1-201)
binding [2]: binds

Substance: Nlp-6*His (from UniProt Q9Y2I6 1-1382)
binding [3]: binds
binding [4]: no binding (tested: 1 mg Nlp-6*His fusion protein)
binding [5]: no binding (tested: 1 mg Nlp-6*His fusion protein)
binding [6]: binds
binding [7]: no binding (tested: 1 mg Nlp-6*His fusion protein)

Substance: Ninein-like protein (Nlp) (from UniProt Q9Y2I6 1-1382)
binding [8]: binds

Further lines, results first:

binding [1]: binds
Substance: β-Catenin (from UniProt P35222 1-781)

binding [1]: binds
Substance: Rab1B (from UniProt Q9H0U4 1-201)

binding [1]: binds
Substance: STING (from UniProt Q86WV6 1-379)
